Counter-ions that a name gives are not always drawn. Whole data set: some 2,000 compounds, median “fractional viability relative to vehicle” near 0.92, cut for the lowest 2% near 0.11. The list shows a part of the results.
Test system: TYKNU
Test: fractional viability relative to vehicle; TYKNU is a high-grade serous ovarian cancer line; higher = less growth inhibition
Conditions: 72 h, genotype: OPA1 knockout (sgOPA1 #2)
In short: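 TYKNU control cells or lentiCRISPRv2 knockout derivatives were plated at 500 cells per well in duplicate into drug-stamped 384-well plates holding a ~2100-compound library at 2 or 10 μM. Culture was in RPMI 1640 with 10% FBS at 37 °C in 5% CO2, with 72 h of drug treatment. Viability was measured by Cell Titer Glo luminescence, and the averaged duplicate treatment wells were normalised to duplicate control wells at the same plate position.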

Compound	fractional viability (2uM)	fractional viability (10uM)
NC(=O)Cc1cccc(C(=O)c2ccccc2)c1N [Nepafenac]	1.05	0.987
C[C@H]1COC2=C1C(=O)C(=O)c1c2ccc2c1CCCC2(C)C [Cryptotanshinone]	0.361	0.0832
CC(C)/N=c1\cc2n(-c3ccc(Cl)cc3)c3ccccc3nc-2cc1Nc1ccc(Cl)cc1 [Clofazimine]	0.969	1.11
O=C1Cc2cc(CCN3CCN(c4nsc5ccccc45)CC3)c(Cl)cc2N1 [Ziprasidone HCl]	1.77	1.16
CC(=O)Nc1ccc(NC(=S)NC(=O)c2ccc(C(C)(C)C)cc2)cc1 [Tenovin-1]	0.332	0.307
CCOc1cc(C(=O)N2CCC(N3CCN(C)CC3)CC2)ccc1Nc1ncc2c(n1)N(C1CCCC1)c1ccccc1C(=O)N2C	0.651	0.154
O=C(NOCCO)c1ccc2cncn2c1Nc1ccc(I)cc1F	0.614	0.314
O=c1cc(-c2ccc(O)c(O)c2)oc2cc(O)cc(O)c12 [Luteolin]	1.21	1.12
Nc1ncn([C@H]2C[C@H](O)[C@@H](CO)O2)c(=O)n1 [Decitabine]	1.42	1.45
O=C(Cc1ccc(-c2ccc(OCCN3CCOCC3)cc2)cn1)NCc1ccccc1	0.335	0.266
CN1C2=CC(=O)/C(=N\NC(N)=O)C=C2CC1S(=O)(=O)O (stereo not given) [Carbazochrome sodium sulfonate (AC-17)]	1.01	0.965
Cc1cc(Nc2ccc(NC(=O)c3ccc(Nc4ccnc5ccccc45)cc3)cc2)nc(N)n1	0.043	0.0318
C[C@H](NC(=O)Cc1cc(F)cc(F)c1)C(=O)N[C@H](C(=O)OC(C)(C)C)c1ccccc1	0.948	1.05
CNC(CC(=O)O)C(=O)O [NMDA (N-Methyl-D-aspartic acid)]	0.984	0.928
CC(C)N(CCCNC(=O)Nc1ccc(C(C)(C)C)cc1)C[C@H]1O[C@@H](n2ccc3c(N)ncnc32)[C@H](O)[C@@H]1O	0.899	0.929
C[C@]12CC[C@@H]3c4ccc(O)cc4CC[C@H]3[C@@H]1CC[C@@H]2OC(=O)CCC1CCCC1 [Estradiol Cypionate]	1.04	0.533
C[C@H](NC(=O)[C@@H](O)c1cc(F)cc(F)c1)C(=O)N[C@@H]1C(=O)N(C)c2ccccc2-c2ccccc21	1.2	1.02
Brc1ccc([C@H]2CN3CCSC3=N2)cc1 [(-)-p-Bromotetramisole Oxalate]	0.832	0.85
CO[C@@H](C(=O)N1Cc2[nH]nc(NC(=O)c3ccc(N4CCN(C)CC4)cc3)c2C1)c1ccccc1	0.964	0.815
CN1CCN(C2=Nc3cc(Cl)ccc3Nc3ccccc32)CC1 [Clozapine]	0.895	1.08
Cc1c(Cc2ccc3ccccc3n2)c2cc(F)ccc2n1CC(=O)O	1.05	0.915
C=CC(=O)N1CCC(Oc2cc3c(Nc4ccc(Cl)c(Cl)c4F)ncnc3cc2OC)CC1 [Poziotinib (HM781-36B)]	1.1	0.926
Cc1cc(=O)n(-c2ccccc2)n1C [Antipyrine]	0.795	0.925

Compound	fractional viability (2uM)	fractional viability (10uM)
Clc1ccc(COC(Cn2ccnc2)c2ccc(Cl)cc2Cl)c(Cl)c1 (stereo not given) [Miconazole Nitrate]	1.18	0.686
Clc1ccc(COC(Cn2ccnc2)c2ccc(Cl)cc2Cl)c(Cl)c1 (stereo not given) [Miconazole]	0.978	0.595
CCCN(CCc1cccs1)[C@H]1CCc2c(O)cccc2C1 [Rotigotine]	0.841	0.767
Cn1ncc(Cl)c1-c1cc(C(=O)N[C@H](CN)Cc2cccc(F)c2)sc1Cl	0.794	0.561
NC12CC3CC(CC(C3)C1)C2 [Amantadine HCl]	0.825	0.922
CC(C)(C)C[C@@H]1N[C@@H](C(=O)N[C@H]2CC[C@H](O)CC2)[C@H](c2cccc(Cl)c2F)[C@]12C(=O)Nc1cc(Cl)ccc12	0.477	0.451
O=c1c2ccccc2oc2ccccc12 [Xanthone]	1.03	0.929
CO[C@H]1O[C@@H]2O[C@@]3(C)CC[C@H]4[C@H](C)CC[C@@H]([C@H]1C)[C@@]24OO3 [Artemether]	0.937	0.971
CC1CCc2c(N3CCC(O)CC3)c(F)cc3c(=O)c(C(=O)O)cn1c23 (stereo not given) [Nadifloxacin]	1.02	0.982
COc1cc2ncc(-c3ccccc3)nc2cc1OC [Tyrphostin AG 1296]	1.35	1.32
CCC[C@H](Nc1nc(-c2ccc(NC(=O)NCC)c(OC)c2)ncc1C)c1cccnc1 [CYT997 (Lexibulin)]	0.378	0.361
O=C(O)CCC(=O)Nc1ccc(Br)cn1 [Bikinin]	0.818	0.759
COc1ccc(C(=O)Nc2sc3c(c2C(N)=O)CCCC3)cc1OC	0.717	0.731
O=NO [Sodium Nitrite]	0.957	0.918
COc1cc(Nc2ncc(F)c(Nc3ccc4c(n3)NC(=O)C(C)(C)O4)n2)cc(OC)c1OC [R406 (free base)]	0.939	1.08
COc1cc(Nc2ncc(F)c(Nc3ccc4c(n3)NC(=O)C(C)(C)O4)n2)cc(OC)c1OC	0.879	0.78
CC(C)(Oc1ccc(Cl)cc1)C(=O)O [Clofibric Acid]	0.956	0.977
CC(=O)[C@@]1(O)CC[C@H]2[C@@H]3CCC4=CC(=O)CCC4=C3[C@@H](c3ccc(N(C)C)cc3)C[C@@]21C [Ulipristal]	0.841	1.07
Cc1ccc(NC(=O)c2ccc(CN3CC[C@H](N(C)C)C3)c(C(F)(F)F)c2)cc1Nc1nccc(-c2cncnc2)n1 [Bafetinib (INNO-406)]	1.09	0.174
CS(=O)(=O)c1cccc(CNc2nc(Nc3ccc4c(c3)CCC(=O)N4)ncc2C(F)(F)F)c1	1.07	0.829
CC1(C)CCC(CN2CCN(c3ccc(C(=O)NS(=O)(=O)c4ccc(NCC5CCOCC5)c([N+](=O)[O-])c4)c(Oc4cnc5[nH]ccc5c4)c3)CC2)=C(c2ccc(Cl)cc2)C1	1	0.73
CCCCCCCCCCC[C@@H](C[C@@H]1OC(=O)[C@H]1CCCCCC)OC(=O)[C@H](CC(C)C)NC=O [Orlistat]	1.03	0.935
